The whole screen tested about 310,000 compounds, of which about 11,000 (3.5%) were called active. This list was built around the results that the source calls inconclusive (neither active nor inactive); the mix of calls is not that of the screen. Calls come from the whole dose curve; as a rule, active = well fitted inhibition curve with a large enough effect; inconclusive = small, poorly fitted or top-dose-only effect, or effect the other way; inactive = flat fitted curve, though single readings scatter. Potencies of inconclusive entries are left out as doubtful fits.
Experiment: VP16 counterscreen qHTS for inhibitors of ROR gamma transcriptional activity;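 note: Gal4-VP16 expression switched on by copper sulfate through the metallothionein promoter; nearly all actives have a fitted effect of over 50% in size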
Settings: Drosophila S2 Gal4-VP16 UAS-luciferase, luminescence, 20 h; series mostly up to 53.6 µM
In the case of Cc1cccc(Nc2nc(N)c([N+](=O)[O-])c(N3CCCC(C)C3)n2)c1 (stereo unspecified), the Potency is reported as inconclusive [inhibitor, single point]. With Fc1cccc(NC(=S)NCc2ccccc2Cl)c1 the Potency was active: 11.2 µM. With COc1ccc(NC(=S)Nc2cc(C)cc(C)n2)cc1OC the Potency was inconclusive [inhibitor, full curve, poor fit]. For O=C(Nc1ccc2c(c1)OCCO2)c1cc2ccccc2o1, the Potency was inconclusive [inhibitor, single point]. For CCNC(=S)N/N=C/c1cccc(C)c1, the Potency was active: 0.891 µM. With Fc1cccc(-c2csc(-c3ccno3)n2)c1 the Potency was “inactive”. For CCOC(=O)c1cnn(-c2ccccc2)c1NC(=O)CN1CCCCC1, the Potency was “inactive”. With CO/N=C(/C(=O)NC1C(=O)N2C(C(=O)O)=C(COC(N)=O)CSC12)c1ccco1 (stereo unspecified) the Potency was “inactive”. For CCOc1ccc2nc(NC(=O)C(NS(=O)(=O)c3cccc4nsnc34)C(C)C)sc2c1 (stereo unspecified), the Potency was inconclusive [inhibitor, single point]. In the case of COc1cc(NC(=O)Cc2nn(C)c(=O)c3ccccc23)cc(OC)c1, the Potency is reported as inconclusive [inhibitor, single point]. With CCCOc1ncnc2c1[nH]c1ccccc12 the Potency was inconclusive [inhibitor, single point]. With C=CCSc1n[nH]c(-c2ccc(OCCCC)cc2)n1 the Potency was active: 8.91 µM. With Cc1ccc(S(=O)(=O)NCc2nc3ccccc3c(=O)n2N)cc1 the Potency was inconclusive [inhibitor, single point]. For O=C(O)c1ccc(N/N=C/c2cn(-c3ccccc3)nc2-c2cccs2)cc1, the Potency was inconclusive [inhibitor, partial curve]. In the case of C=C1C(=O)O[C@H]2[C@H]1[C@@H](O)CC(=C)[C@@H]1CC(=O)[C@@H](C)[C@H]21, the Potency is reported as inconclusive [inhibitor, single point]. With CCOC(=O)c1cnc2c(ccc3ccccc32)c1NCCO the Potency was inconclusive [inhibitor, partial curve]. In the case of COc1cc(C=O)ccc1OCCOCCOc1cc(C)ccc1Cl, the Potency is reported as inconclusive [inhibitor, partial curve]. For COc1ccccc1-c1nc2cc(Cl)ccc2c(=O)n1O, the Potency was active: 2.51 µM. In the case of CCOc1ccc(N(CC(=O)Nc2cccc(Cl)c2)S(=O)(=O)c2c(C)noc2C)cc1, the Potency is reported as active: 12.6 µM. For O=C(NC(C(=O)c1ccccc1)N1CCCCCC1)c1ccco1 (stereo unspecified), the Potency was “inactive”. In the case of CNC(=S)N/N=C(\C)c1cccc(C(F)(F)F)c1, the Potency is reported as active: 3.55 µM.

Source: PubChem BioAssay AID2546 (National Center for Advancing Translational Sciences (NCATS), 2010)
Potency is the fitted concentration of half-maximal effect; tags give direction and shape of the fitted curve.
